According to the antibiotic and cytotoxicity screens of Wong et al. (2023):
This is one part of the list.

These compounds were tested on HSkMC (human skeletal muscle cells) (assay: cytotoxicity call (relative viability < 0.9)). Settings: 10 µM.
With `C[C@@H]1CN([C@H](C)CO)C(=O)Cc2cc(NS(=O)(=O)c3cn(C)cn3)ccc2O[C@@H]1CN(C)S(=O)(=O)c1cccs1` the cytotoxicity call was “inactive”. With `COc1ccccc1C#Cc1ccc2c(c1)O[C@H](CN(C)Cc1cncnc1)[C@@H](C)CN([C@@H](C)CO)S2(=O)=O` the cytotoxicity call was “inactive”. For `Cl.Clc1ccc2c(c1)CCc1cccnc1C2=C1CCNCC1`, the cytotoxicity call was “inactive”. `C[C@@H]1CN([C@H](C)CO)C(=O)c2cc(C#CCN(C)C)cnc2O[C@H]1CN(C)Cc1cccc(C(=O)O)c1` was tested, and the cytotoxicity call was “inactive”. With `C[C@H](CO)N1C[C@H](C)[C@@H](CN(C)S(=O)(=O)c2ccc(Cl)cc2)OCCCC[C@H](C)Oc2ccc(NC(=O)C3CCCCC3)cc2C1=O` the cytotoxicity call was “inactive”. `CC(C)NC(=O)Nc1ccc2c(c1)C(=O)N([C@@H](C)CO)C[C@H](C)[C@@H](CN(C)CC1CCCCC1)OCCCC[C@H](C)O2` was tested, and the cytotoxicity call was “inactive”. In the case of `C[C@H]1CN([C@@H](C)CO)C(=O)c2cc(N(C)C)ccc2O[C@H]1CN(C)S(C)(=O)=O`, the cytotoxicity call is reported as “inactive”. `C=CC[C@H](CC(=O)NCCO)C(=O)N[C@@H](COC(=O)[C@H](CC=C)CC(=O)OC(C)(C)C)Cc1ccccc1` was tested, and the cytotoxicity call was “inactive”. `CC1OC(OC2C(O)CC(OC3C(O)CC(OC4CCC5(C)C(CCC6C5CCC5(C)C(C7=CC(=O)OC7)CCC65O)C4)OC3C)OC2C)CC(O)C1O` (stereo not given) was tested, and the cytotoxicity call was “active”. For `CN1CCN(C(=O)C[C@H]2CC[C@H]3[C@H](COc4ccc(NC(=O)c5cscn5)cc4C(=O)N3C)O2)CC1`, the cytotoxicity call was “inactive”. In the case of `C[C@@H]1CN([C@H](C)CO)S(=O)(=O)c2ccc(C#C[C@@H](C)O)cc2O[C@@H]1CN(C)C(=O)c1ccncc1`, the cytotoxicity call is reported as “inactive”. For `C[C@H]1CN([C@@H](C)CO)C(=O)c2cc(NC(=O)Nc3ccc(F)cc3)ccc2O[C@H]1CN(C)S(=O)(=O)c1cn(C)cn1`, the cytotoxicity call was “inactive”. For `C[C@@H]1CN([C@H](C)CO)C(=O)c2cccc(NC(=O)Nc3ccc(F)cc3)c2O[C@H]1CN(C)S(C)(=O)=O`, the cytotoxicity call was “inactive”. With `O=C(C[C@@H]1CC[C@H]2[C@@H](COC[C@@H](O)CN2S(=O)(=O)c2ccccc2F)O1)NCc1ccccc1Cl` the cytotoxicity call was “inactive”. For `COc1ccc(S(=O)(=O)N(C)C[C@@H]2Oc3ccc(NS(=O)(=O)c4ccc(C)cc4)cc3CC(=O)N([C@H](C)CO)C[C@@H]2C)cc1`, the cytotoxicity call was “inactive”. `COc1ccc(NC(=O)Nc2ccc3c(c2)C(=O)N([C@@H](C)CO)C[C@@H](C)[C@@H](CN(C)S(=O)(=O)c2ccc(Cl)cc2)OCCCC[C@@H](C)O3)cc1` was tested, and the cytotoxicity call was “inactive”. For `O=C(N[C@H]1CC[C@H](CC(=O)N2CCOCC2)O[C@H]1CO)c1ccccn1`, the cytotoxicity call was “inactive”. In the case of `CN1C(=O)c2cc(NC(=O)c3cnccn3)ccc2OC[C@@H]2O[C@H](CC(=O)N[C@H]3CCN(Cc4ccccc4)C3)CC[C@H]21`, the cytotoxicity call is reported as “inactive”. For `COc1ccc(NC(=O)N(C)C[C@@H]2OCCCC[C@@H](C)Oc3ccc(NS(=O)(=O)c4cccs4)cc3C(=O)N([C@H](C)CO)C[C@@H]2C)cc1`, the cytotoxicity call was “inactive”. In the case of `C[C@H]1CN([C@@H](C)CO)C(=O)c2cc(-c3ccncc3)cnc2O[C@@H]1CN(C)C(=O)Nc1ccc2c(c1)OCO2`, the cytotoxicity call is reported as “inactive”. For `N#Cc1ccc(O)cn1`, the cytotoxicity call was “inactive”. With `COc1ccc(S(=O)(=O)N(C)C[C@@H]2OCCCC[C@@H](C)Oc3ccc(NS(=O)(=O)c4ccc(Cl)cc4)cc3C(=O)N([C@H](C)CO)C[C@@H]2C)cc1` the cytotoxicity call was “inactive”. In the case of `O=C(C[C@@H]1CC[C@H]2[C@@H](COC[C@H](O)CN2C(=O)c2cccnc2)O1)NCc1ccc(-c2ccccc2)cc1`, the cytotoxicity call is reported as “inactive”. `C[C@H](CO)N1C[C@H](C)[C@@H](CN(C)S(=O)(=O)c2cccc(C#N)c2)OCc2cnnn2CCCC1=O` was tested, and the cytotoxicity call was “inactive”. In the case of `C[C@@H]1CCCCO[C@@H](CN(C)C)[C@@H](C)CN([C@H](C)CO)C(=O)c2cc(NC(=O)Nc3cccc4ccccc34)ccc2O1`, the cytotoxicity call is reported as “inactive”. With `C[C@H](CO)N1C[C@H](C)[C@H](CN(C)S(=O)(=O)c2ccc(Cl)cc2)OCCCC[C@H](C)Oc2ccc(NC(=O)CCC(F)(F)F)cc2C1=O` the cytotoxicity call was “inactive”. With `C[C@@H]1CN([C@H](C)CO)C(=O)c2cc(C#CC3(O)CCCC3)cnc2O[C@@H]1CN(C)C(=O)C1CCOCC1` the cytotoxicity call was “inactive”. In the case of `COc1cc2ccnc(CCCN)c2cc1OC`, the cytotoxicity call is reported as “inactive”. With `C[N+](C)(C)CCCCNC(=O)[C@@H]1C[C@@H]2C(=O)N[C@@H](CCCC[N+](C)(C)C)C(=O)N2[C@@H]1c1cccc(OCCO)c1` the cytotoxicity call was “inactive”. In the case of `C[C@H](CO)N1C[C@H](C)[C@@H](CN(C)C(=O)Nc2cccc3ccccc23)Oc2ccc(NS(=O)(=O)c3cccs3)cc2C1=O`, the cytotoxicity call is reported as “inactive”.
